Scores whose standard error is large were omitted. Two further conditions of the source, in which the scores hardly spread, are not listed. Names with del lack the residues named; names with ins carry added residues between the positions named. For part of these data: The data file names ogerin without a concentration.
B1: GPR68, Q15743 (parent)
chain: MGNITADNSSMSCTIDHTIHQTLAPVVYVTVLVVGFPANCLSLYFGYLQIKARNELGVYLCNLTVADLFYICSLPFWLQYVLQHDNWSHGDLSCQVCGILLYENIYISVGFLCCISVDRYLAVAHPFRFHQFRTLKAAVGVSVVIWAKELLTSIYFLMHEEVIEDENQHRVCFEHYPIQAWQRAINYYRFLVGFLFPICLLLASYQGILRAVRRSHGTQKSRKDQIQRLVLSTVVIFLACFLPYHVLLLVRSVWEASCDFAKGVFNAYHFSLLLTSFNCVADPVLYCFVSETTHRDLARLRGACLAFLTCSRTGRAREAYPLGAPEASGKSGAQGEEPELLTKLHPAFQTPNSPGSGGFPTGRLA

What was measured:
[1] = variants of: B1; test: cAMP reporter score (Enrich2 score, wild type = 0); higher = more signal; HEK293T, FACS bins
[2] = variants of: B1; test: surface expression score (Enrich2 score, wild type = 0); higher = more signal; HEK293T, FACS bins

Variant	cAMP reporter score ([1]; pH 5.5)	cAMP reporter score ([1]; pH 6)	cAMP reporter score ([1]; pH 6, modulator: ogerin)	cAMP reporter score ([1]; pH 6.5, modulator: ogerin)	surface expression score [2]
R119N	-0.609	-1.11	-0.718	-0.492	-0.876
R119P	-2.14	-1.05	-0.871	-1.46	-2.13
R119Q	-1.48	-1.32	–	-1.25	-0.544
R119S	-2.71	-0.819	–	-0.738	-0.362
R119T	-1.26	-1.18	-1.69	-1.2	-1.34
R119V	-2.68	-0.397	-0.648	–	-0.407
R119W	-0.98	-0.697	–	-0.461	-2.63
R119Y	-0.908	–	-1.58	-1.56	–
R119_Y120del	-0.829	-0.153	–	-0.729	-2.85
R119_Y120insGS	-0.539	-0.35	–	-0.265	-2.47
Y120C	-0.296	-0.786	-2.67	-1.14	-2.45
Y120D	-1.63	-1.16	–	-1.57	-3.5
Y120E	-0.969	-2.02	-0.184	-0.424	–
Y120F	-1.04	-0.665	-0.669	-0.437	-0.411
Y120G	-0.817	-1.51	–	-0.604	-2.49
Y120H	-0.808	-0.376	-1.02	-0.858	-0.97
Y120K	-0.401	–	-0.664	-0.432	-0.425
Y120L	0.115	–	0.469	-0.112	-1.72
Y120M	-0.189	-0.193	-1.47	-0.844	-2.84
Y120N	-0.409	-0.582	–	–	–
Y120P	-1.85	-1.34	-1.71	-1.34	-1.86
Y120Q	-1.19	-0.812	–	-2.28	-2.9

Variant	cAMP reporter score ([1]; pH 5.5)	cAMP reporter score ([1]; pH 6)	cAMP reporter score ([1]; pH 6, modulator: ogerin)	cAMP reporter score ([1]; pH 6.5, modulator: ogerin)	surface expression score [2]
Y120R	-2.5	-1.06	-3.79	–	–
Y120S	-0.285	0.489	-3.46	–	-1.25
Y120T	-1.5	-1.1	-2.17	-0.851	-2.66
Y120V	-0.226	–	1.53	-0.024	–
Y120W	1.37	-0.698	-0.64	-0.441	0.891
Y120_A122del	-2.34	-1.1	–	-1.24	-2.47
Y120_L121del	-0.558	–	-1.25	-1.84	-1.94
Y120_L121insG	-2.02	-1.43	-1.5	-0.73	-2.28
Y120_L121insGSG	-1.9	-1.83	–	-1.38	-1.19
Y120del	-0.841	-0.849	-1.16	-0.606	-2.44
L121_A122insG	-1.73	-1.2	-1.14	-1.07	-3.14
A122C	-1.8	-1.51	-1.27	-1.26	–
A122D	-1.45	-0.827	-1.51	-1.37	-2.26
A122E	-2.12	-0.419	-1.46	-1.34	-1.1
A122F	-1.95	-1.32	-2.11	-2.21	-0.639
A122G	-0.526	0.633	-0.705	-1.04	-2.5
A122H	-0.831	-1.59	-0.432	-1.55	-0.394
A122I	-1.01	–	-1.09	-1.16	-0.992
A122K	-0.814	-0.362	-0.945	-0.608	-0.23
A122L	-0.413	-2.04	-0.686	-0.434	-0.183
A122M	-2.71	-1	-1.69	-0.253	-0.118
A122P	-1.51	-0.992	-1.24	-1.79	-2.11

Variant	cAMP reporter score ([1]; pH 5.5)	cAMP reporter score ([1]; pH 6)	cAMP reporter score ([1]; pH 6, modulator: ogerin)	cAMP reporter score ([1]; pH 6.5, modulator: ogerin)	surface expression score [2]
A122Q	-1.57	–	-0.472	-1.81	-0.28
A122R	-0.394	–	-0.699	-0.671	-0.007
A122S	-0.574	-0.912	-1.23	-0.614	-0.303
A122T	-1.73	-1.26	–	-0.918	0.449
A122Y	-0.663	-0.833	-1.95	-0.616	–
A122_V123insGSG	-0.645	–	–	-0.453	-1.84
V123A	-0.928	-0.38	-0.919	-0.884	-0.723
V123C	1.02	–	-0.917	-0.415	1.51
V123D	-2.46	-1.08	-0.536	-0.794	-2.65
V123E	-2	-0.837	-1.66	-1.56	-1.26
V123F	-0.865	-1.94	-1.29	-1.37	-1.77
V123G	-0.109	-1.47	-1.23	-0.862	–
V123H	-1.12	1.43	-1.19	-0.701	-1.42
V123K	-0.009	–	-1.6	–	-1.58
V123L	-0.227	-0.06	0.272	–	-0.401
V123M	-1.73	–	-1	-1.09	-0.475
V123N	-2.47	-1.57	-1.51	-1.6	-2.08
V123P	-0.951	-1.48	-1.96	-1.75	-2.93
V123Q	-1.62	-0.764	-0.935	-1.26	-1.97
V123R	-1.98	-2.11	-2.04	-1.45	-2.82
V123S	-0.991	-1.15	-1.02	-0.648	-1.92
V123T	-1.23	-0.811	-1.35	-1.07	-0.528

Source: the GPR68 mutational scans of Howard et al. (2025)
